Among the data in the supplement of paper PMC10369915 are enrichment score values, retold here.

The other results are listed elsewhere or left out. No stated cut-off is given here; in the data, active = 3.2 or more and inactive = the rest. The signal is at background level for most entries.
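Further: displayed peptides selected on beads carrying the immobilized SH2 domain, with library peptides lacking any tyrosine serving as negative controls.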

In one experiment the target is SHP2 C-SH2 domain E139D. The experiment can be described thus: enrichment score (SH2-bound / input frequency) (ratio); bacterial display of known human phosphotyrosine sites (pTyr-Var adds point mutants) read by sequencing; higher = stronger binding; tyrosines were phosphorylated by kinases first. To be noted: peptide library: pTyr-Var.
As for ILILKYPIEHG [ACTA1_Y71_T68I], the enrichment score was active: 5.35.
On the same count and under the same terms, the same measure for IIEDPYYGNDF [ACP1_Y132_S137F]: inactive: 0.612; for FKDGQYWIRGW [ACSF3_Y466_R471W]: inactive: 1.02.
For the molecule GGPTFYIDTNA [ACTL6A_Y69_YF], the enrichment score was inactive: 1.41.
Regarding AIFEGYALPHA [ACTC1_Y171_P166A_YF], the enrichment score was inactive: 1.06.
On to PIFEGYALPHA [ACTA1_Y171_YF], for which the enrichment score was inactive: 0.972.
For the molecule GDLTDYLMKIL [ACTA1_Y190_R185G], the enrichment score was inactive: 1.97.
On the same count and under the same terms, the same measure for LLASGYDSPIN [ABLIM1_Y638_R637G]: inactive: 0.924.
In the case of GGTTLYPGIAD [ACTC1_Y308_M307L], the enrichment score is inactive: 0.607.
On the same count and under the same terms, the same measure for NKHTTYTMEHI [ACTN1_Y708_N707T]: inactive: 0.655.
On to VGTKRYMASEV [ACVRL1_Y375_P378S], for which the enrichment score was inactive: 0.551.
Regarding GPKFGYDEIDN [ACOX1_Y232], the enrichment score was inactive: 0.627.
As for GFVEDYRPPFY [ACVRL1_Y421_I417F], the enrichment score was inactive: 0.997.
As to SDLTDYLMKIL [ACTA1_Y190_R185S], the enrichment score is inactive: 1.7.
Still for that read-out and setting: under IHETTYNSIKK [ACTA1_Y281_M285K] stands inactive: 0.57; under CDLTDYLMKIL [ACTA1_Y190_R185C], inactive: 1.7.
As for KAIMIYVSSFY [ACTN4_Y260_T259I], the enrichment score was inactive: 0.819.
On the same count and under the same terms, under IRDENYGEGSS [ACO2_Y665_G661R] stands inactive: 0.41.

The target of another experiment is SHP2 C-SH2 domain wild-type. The experiment is described as above. The conditions noted are these: peptide library: pTyr-Var.
For the molecule ILILKYPIEHG [ACTA1_Y71_T68I], the enrichment score is active: 3.35.
The same measure, in the same setting: the same measure for IIEDPYYGNDF [ACP1_Y132_S137F]: inactive: 0.868; for FKDGQYWIRGW [ACSF3_Y466_R471W]: inactive: 1.14; for GGPTFYIDTNA [ACTL6A_Y69_YF]: inactive: 1.5.
Still for that read-out and setting: under AIFEGYALPHA [ACTC1_Y171_P166A_YF] stands inactive: 0.803; under PIFEGYALPHA [ACTA1_Y171_YF], inactive: 0.777; under GDLTDYLMKIL [ACTA1_Y190_R185G], inactive: 1.82.
Take LLASGYDSPIN [ABLIM1_Y638_R637G]: the enrichment score was inactive: 1.16.
Same read-out and setting: under GGTTLYPGIAD [ACTC1_Y308_M307L] stands inactive: 0.709.
On the same count and under the same terms, the same measure for NKHTTYTMEHI [ACTN1_Y708_N707T]: inactive: 0.733; for VGTKRYMASEV [ACVRL1_Y375_P378S]: inactive: 0.406; for GPKFGYDEIDN [ACOX1_Y232]: inactive: 0.588.
The same measure, in the same setting: the same measure for GFVEDYRPPFY [ACVRL1_Y421_I417F]: inactive: 0.883.
Turning to SDLTDYLMKIL [ACTA1_Y190_R185S], the enrichment score is inactive: 1.72.
Same read-out and setting: under IHETTYNSIKK [ACTA1_Y281_M285K] stands inactive: 1.11; under CDLTDYLMKIL [ACTA1_Y190_R185C], inactive: 2.02; under KAIMIYVSSFY [ACTN4_Y260_T259I], inactive: 1.07.
Take IRDENYGEGSS [ACO2_Y665_G661R]: the enrichment score is inactive: 0.437.

Another experiment addresses SHP2 N-SH2 domain L43F. The description is as above. The conditions noted are these: peptide library: pTyr-Var.
As to ILILKYPIEHG [ACTA1_Y71_T68I], the enrichment score is active: 4.44.
Still for that read-out and setting: under IIEDPYYGNDF [ACP1_Y132_S137F] stands inactive: 0.622; under FKDGQYWIRGW [ACSF3_Y466_R471W], inactive: 0.783; under GGPTFYIDTNA [ACTL6A_Y69_YF], inactive: 1.2.
The same measure, in the same setting: under AIFEGYALPHA [ACTC1_Y171_P166A_YF] stands inactive: 0.857.
For the molecule PIFEGYALPHA [ACTA1_Y171_YF], the enrichment score is inactive: 0.686.
On the same count and under the same terms, under GDLTDYLMKIL [ACTA1_Y190_R185G] stands inactive: 1.48; under LLASGYDSPIN [ABLIM1_Y638_R637G], inactive: 1.1; under GGTTLYPGIAD [ACTC1_Y308_M307L], inactive: 0.731.
Turning to NKHTTYTMEHI [ACTN1_Y708_N707T], the enrichment score was inactive: 0.601.
The same measure, in the same setting: the same measure for VGTKRYMASEV [ACVRL1_Y375_P378S]: inactive: 0.472.
Same read-out and setting: under GPKFGYDEIDN [ACOX1_Y232] stands inactive: 0.648; under GFVEDYRPPFY [ACVRL1_Y421_I417F], inactive: 1.13; under SDLTDYLMKIL [ACTA1_Y190_R185S], inactive: 1.7.
The same measure, in the same setting: the same measure for IHETTYNSIKK [ACTA1_Y281_M285K]: inactive: 0.638; for CDLTDYLMKIL [ACTA1_Y190_R185C]: inactive: 1.42; for KAIMIYVSSFY [ACTN4_Y260_T259I]: inactive: 1.04.
For the molecule IRDENYGEGSS [ACO2_Y665_G661R], the enrichment score was inactive: 0.403.

The target of a further experiment is SHP2 N-SH2 domain T42A. The description is as above. The conditions noted are these: peptide library: pTyr-Var.
On to ILILKYPIEHG [ACTA1_Y71_T68I], for which the enrichment score was inactive: 2.77.
On the same count and under the same terms, under IIEDPYYGNDF [ACP1_Y132_S137F] stands inactive: 0.572; under FKDGQYWIRGW [ACSF3_Y466_R471W], inactive: 0.843.
Still for that read-out and setting: under GGPTFYIDTNA [ACTL6A_Y69_YF] stands inactive: 1.94.
In the case of AIFEGYALPHA [ACTC1_Y171_P166A_YF], the enrichment score is inactive: 1.02.
Same read-out and setting: the same measure for PIFEGYALPHA [ACTA1_Y171_YF]: inactive: 0.779; for GDLTDYLMKIL [ACTA1_Y190_R185G]: inactive: 1.59; for LLASGYDSPIN [ABLIM1_Y638_R637G]: inactive: 0.647.
On the same count and under the same terms, the same measure for GGTTLYPGIAD [ACTC1_Y308_M307L]: inactive: 0.624; for NKHTTYTMEHI [ACTN1_Y708_N707T]: inactive: 0.621.
The same measure, in the same setting: the same measure for VGTKRYMASEV [ACVRL1_Y375_P378S]: inactive: 0.383; for GPKFGYDEIDN [ACOX1_Y232]: inactive: 0.665.
With GFVEDYRPPFY [ACVRL1_Y421_I417F], the enrichment score is inactive: 0.762.
Regarding SDLTDYLMKIL [ACTA1_Y190_R185S], the enrichment score was inactive: 1.52.
Turning to IHETTYNSIKK [ACTA1_Y281_M285K], the enrichment score was inactive: 0.676.
Take CDLTDYLMKIL [ACTA1_Y190_R185C]: the enrichment score is inactive: 1.55.
On the same count and under the same terms, under KAIMIYVSSFY [ACTN4_Y260_T259I] stands inactive: 0.919; under IRDENYGEGSS [ACO2_Y665_G661R], inactive: 0.328.

The target of the next experiment is SHP2 N-SH2 domain T52S. The experiment is described as above. To be noted: peptide library: pTyr-Var.
In the case of ILILKYPIEHG [ACTA1_Y71_T68I], the enrichment score was active: 4.38.
The same measure, in the same setting: the same measure for IIEDPYYGNDF [ACP1_Y132_S137F]: inactive: 0.715; for FKDGQYWIRGW [ACSF3_Y466_R471W]: inactive: 0.9; for GGPTFYIDTNA [ACTL6A_Y69_YF]: inactive: 1.05.
On the same count and under the same terms, the same measure for AIFEGYALPHA [ACTC1_Y171_P166A_YF]: inactive: 0.682; for PIFEGYALPHA [ACTA1_Y171_YF]: inactive: 0.86; for GDLTDYLMKIL [ACTA1_Y190_R185G]: inactive: 2.01.
Take LLASGYDSPIN [ABLIM1_Y638_R637G]: the enrichment score was inactive: 0.902.
In the case of GGTTLYPGIAD [ACTC1_Y308_M307L], the enrichment score was inactive: 0.774.
Take NKHTTYTMEHI [ACTN1_Y708_N707T]: the enrichment score was inactive: 0.69.
For VGTKRYMASEV [ACVRL1_Y375_P378S], the enrichment score was inactive: 0.454.
On the same count and under the same terms, under GPKFGYDEIDN [ACOX1_Y232] stands inactive: 0.701; under GFVEDYRPPFY [ACVRL1_Y421_I417F], inactive: 0.828; under SDLTDYLMKIL [ACTA1_Y190_R185S], inactive: 1.58.
On the same count and under the same terms, the same measure for IHETTYNSIKK [ACTA1_Y281_M285K]: inactive: 0.537; for CDLTDYLMKIL [ACTA1_Y190_R185C]: inactive: 1.17.
With KAIMIYVSSFY [ACTN4_Y260_T259I], the enrichment score was inactive: 0.904.
The same measure, in the same setting: under IRDENYGEGSS [ACO2_Y665_G661R] stands inactive: 0.467.

The next experiment addresses SHP2 N-SH2 domain wild-type. Described as above. To be noted: peptide library: pTyr-Var.
With ILILKYPIEHG [ACTA1_Y71_T68I], the enrichment score is active: 4.67.
Still for that read-out and setting: the same measure for IIEDPYYGNDF [ACP1_Y132_S137F]: inactive: 0.68.
On the same count and under the same terms, under FKDGQYWIRGW [ACSF3_Y466_R471W] stands inactive: 0.941; under GGPTFYIDTNA [ACTL6A_Y69_YF], inactive: 1.27.
For AIFEGYALPHA [ACTC1_Y171_P166A_YF], the enrichment score was inactive: 1.04.
With PIFEGYALPHA [ACTA1_Y171_YF], the enrichment score was inactive: 0.621.
The same measure, in the same setting: under GDLTDYLMKIL [ACTA1_Y190_R185G] stands inactive: 1.45; under LLASGYDSPIN [ABLIM1_Y638_R637G], inactive: 0.828; under GGTTLYPGIAD [ACTC1_Y308_M307L], inactive: 0.72.
Same read-out and setting: under NKHTTYTMEHI [ACTN1_Y708_N707T] stands inactive: 0.526; under VGTKRYMASEV [ACVRL1_Y375_P378S], inactive: 0.567.
Still for that read-out and setting: the same measure for GPKFGYDEIDN [ACOX1_Y232]: inactive: 0.658.
In the case of GFVEDYRPPFY [ACVRL1_Y421_I417F], the enrichment score is inactive: 0.953.
As for SDLTDYLMKIL [ACTA1_Y190_R185S], the enrichment score was inactive: 1.67.
IHETTYNSIKK [ACTA1_Y281_M285K]: the enrichment score is inactive: 0.703.
Same read-out and setting: under CDLTDYLMKIL [ACTA1_Y190_R185C] stands inactive: 1.9; under KAIMIYVSSFY [ACTN4_Y260_T259I], inactive: 1.35.
Still for that read-out and setting: the same measure for IRDENYGEGSS [ACO2_Y665_G661R]: inactive: 0.598.
